Measured values from the supplement of paper PMC2702839.
Where a name gives a salt, the structure may show the parent alone. The list shows a part of the results.

test system: Schistosoma mansoni schistosomula; assay: phenotypic hit in primary schistosomula screen (any phenotype vs DMSO control) (binary (1 = hit, 0 = no phenotype)); higher = active (phenotype induced); settings: 1 µM; time (d): 7

Structure (SMILES)	phenotypic hit
COc1ccc2c(c1)OCc1c-2oc2cc(OC)ccc12 [dehydrovariabilin]	inactive: 0
NC(=O)N1c2ccccc2C=Cc2ccccc21 [Carbamazepine]	inactive: 0
COc1c2ccoc2nc2c(OC)c(OCC(O)C(C)(C)O)ccc12 (configuration not stated) [evoxine]	inactive: 0
CC(C)(O)[C@@H]1Cc2cc3ccc(=O)oc3cc2O1 [marmesin]	inactive: 0
CC[C@H]1OC(=O)[C@H](C)[C@@H](O[C@H]2C[C@@](C)(OC)[C@@H](O)[C@H](C)O2)[C@H](C)[C@@H](O[C@@H]2O[C@H](C)C[C@H](N(C)C)[C@H]2O)[C@](C)(O)C[C@@H](C)/C(=N\OCOCCOC)[C@H](C)[C@@H](O)[C@]1(C)O [roxithromycin]	inactive: 0
Nc1nc(=O)c2nc(CNc3ccc(C(=O)N[C@@H](CCC(=O)O)C(=O)O)cc3)cnc2[nH]1 [folic acid]	inactive: 0
CC(=O)N[C@@H](CC(C)C)C(=O)O [acetyl-l-leucine]	inactive: 0
COc1ccc(-c2cc(=O)c3c(O)cc(O)cc3o2)cc1O [diosmetin]	inactive: 0
CC(=O)OC[C@@]1(O)C[C@@]23CC[C@@H]4c5ccoc5CC[C@@]4(C)[C@@H]2CC[C@@H]1C3 [cafestol acetate]	inactive: 0
COc1cc2ccc(=O)oc2c(OC)c1OC [fraxidin methyl ether]	inactive: 0
CO/N=C(\C(=O)N[C@@H]1C(=O)N2C(C(=O)O)=C(CSc3nc(=O)c(O)nn3C)CS[C@H]12)c1csc(N)n1 [ceftriaxone sodium]	inactive: 0
O=C(Cc1cccs1)N[C@@H]1C(=O)N2C(C(=O)[O-])=C(C[n+]3ccccc3)CS[C@H]12 [cephaloridine]	inactive: 0
COc1ccc(-c2coc3c(OC)c(O)ccc3c2=O)cc1 [7-hydroxy-8,4'-dimethoxyisoflavone]	inactive: 0
O=C(Oc1cc(OC(=O)c2ccccc2)c2c(c1)O[C@H](c1ccc(OC(=O)c3ccccc3)c(OC(=O)c3ccccc3)c1)[C@@H](OC(=O)c1ccccc1)C2)c1ccccc1 [catechin pentabenzoate]	inactive: 0
NC1(C(=O)O)CCCC1 [cycloleucine]	inactive: 0
NCCCC[C@H](N[C@@H](CCc1ccccc1)C(=O)O)C(=O)N1CCC[C@H]1C(=O)O [lisinopril]	inactive: 0
C[C@]12CCC(=O)C=C1CC[C@@H]1[C@@H]2[C@@H](O)C[C@@]2(C)[C@H]1CC[C@]2(O)C(=O)COC(=O)CCC(=O)O [hydrocortisone hemisuccinate]	inactive: 0
CC(C)(C)NC[C@H](O)COc1nsnc1N1CCOCC1 [timolol maleate]	inactive: 0
CC(C)CCC[C@@H](C)[C@H]1CC[C@H]2[C@@H]3CC[C@H]4C[C@H](O)CC[C@]4(C)[C@H]3CC[C@]12C [epicholestanol]	inactive: 0
CCOC(=O)[C@H](CCc1ccccc1)N[C@H]1CCc2ccccc2N(CC(=O)O)C1=O [benazepril hydrochloride]	inactive: 0
CCOC(=O)OC(C)OC(=O)[C@@H]1N2C(=O)[C@@H](NC(=O)[C@H](N)c3ccccc3)[C@H]2SC1(C)C (some centres not stated) [bacampicillin hydrochloride]	inactive: 0
CCCNC(C)C(=O)Nc1ccccc1C (configuration not stated) [prilocaine hydrochloride]	inactive: 0
COc1ccc(CN(CCN(C)C)c2ccccn2)cc1 [Pyrilamine maleate]	inactive: 0

Structure (SMILES)	phenotypic hit
CC(COc1ccccc1)N(CCCl)Cc1ccccc1 (configuration not stated) [Phenoxybenzamine hydrochloride]	inactive: 0
Nc1ncn([C@@H]2O[C@H](CO)[C@@H](O)[C@H]2O)c(=O)n1 [5-azacytidine]	inactive: 0
COc1cc2cc3c4cc(OC)c(OC)cc4cc[n+]3c(C)c2cc1OC [coralyne chloride]	inactive: 0
C=C1c2cccc(O)c2C(=O)C2=C(O)[C@]3(O)C(=O)C(C(N)=O)=C(O)[C@@H](N(C)C)[C@@H]3[C@@H](O)[C@H]12 [methacycline hydrochloride]	inactive: 0
COC(=O)C1=C(C)NC(C)=C(C(=O)OC)C1c1ccccc1[N+](=O)[O-] [Nifedipine]	inactive: 0
Cc1cc(OC(=O)c2c(C)cc(O)cc2O)cc(O)c1C(=O)O [lecanoric acid]	inactive: 0
CN(C)CCCN1c2ccccc2CCc2ccc(Cl)cc21 [Clomipramine hydrochloride]	active: 1
Cc1cc(NC(=O)C2=C(O)c3ccccc3S(=O)(=O)N2C)no1 [isoxicam]	inactive: 0
Cc1cc(C(C)(C)CC(C)(C)C)ccc1OCCOCC[N+](C)(C)Cc1ccccc1 [methylbenzethonium chloride]	inactive: 0
COC(=O)c1c(Cl)c(Cl)c(C(=O)OC)c(Cl)c1Cl [dacthal]	inactive: 0
Nc1ccc(S(=O)(=O)Nc2ncccn2)cc1 [sulfadiazine]	inactive: 0
C[C@@H]1CC[C@@]2(OC1)O[C@H]1C[C@H]3[C@@H]4CC[C@H]5C[C@@H](O)CC[C@]5(C)[C@H]4CC[C@]3(C)[C@H]1[C@@H]2C [tigogenin]	inactive: 0
Oc1cc(O)cc(/C=C/c2ccccc2)c1 [pinosylvin]	inactive: 0
O=c1c(O)c(-c2ccccc2)oc2ccccc12 [3-hydroxyflavone]	inactive: 0
CO[C@@]1(NC(=O)C(C(=O)O)c2ccc(O)cc2)C(=O)N2C(C(=O)O)=C(CSc3nnnn3C)CO[C@@H]21 (some centres not stated) [moxalactam disodium]	inactive: 0
C#C[C@]1(O)CC[C@H]2[C@@H]3CCC4=CC(=O)CC[C@@H]4[C@H]3CC[C@@]21C [norethindrone]	inactive: 0
O=C1C(CC[S+]([O-])c2ccccc2)C(=O)N(c2ccccc2)N1c1ccccc1 (configuration not stated) [sulfinpyrazone]	inactive: 0
CC(=O)OC/C=C(C)/C=C/C=C(C)/C=C/C1=C(C)CCCC1(C)C [retinyl acetate]	inactive: 0
NS(=O)(=O)c1cc2c(cc1Cl)N=C(CSCc1ccccc1)NS2(=O)=O [benzthiazide]	inactive: 0
COc1cc(C(=O)O)c2c(c1C)OC(=O)c1c(C)cc(O)c(C=O)c1O2 [psoromic acid]	inactive: 0
CC(=O)Oc1c(C)cccc1C(=O)O [cresopyrine]	inactive: 0
N=c1ccn2c(n1)O[C@H]1[C@H](O)[C@@H](CO)O[C@H]12 [ancitabine hydrochloride]	inactive: 0
CS(=O)(=O)c1ccc([C@@H](O)[C@@H](CO)NC(=O)C(Cl)Cl)cc1 [thiamphenicol]	inactive: 0

Structure (SMILES)	phenotypic hit
C[C@]12C=CC(=O)C=C1CC[C@@H]1[C@@H]2[C@@H](O)C[C@@]2(C)[C@H]1CC[C@]2(O)C(=O)CO [prednisolone]	inactive: 0
O=c1[nH]cc(F)c(=O)[nH]1 [fluorouracil]	active: 1
O=C(O)c1cc(=O)c2cccc(O)c2[nH]1 [xanthurenic acid]	inactive: 0
O=c1cc(-c2cc(O)c(O)c(O)c2)oc2cc(O)cc(O)c12 [hieracin]	inactive: 0
O=C(O)Cc1ccccc1Nc1c(Cl)cccc1Cl [Diclofenac sodium]	inactive: 0
C[C@@H]1O[C@@H](Oc2c(-c3ccc(O)c(O)c3)oc3cc(O)cc(O)c3c2=O)[C@H](O)[C@H](O)[C@H]1O [quercitrin]	inactive: 0
O=C1C=C2CC3(O)COc4cc(O)ccc4C3=C2C=C1O (configuration not stated) [brazilein]	inactive: 0
N[C@H](Cc1ccccc1)C(=O)O [d-phenylalanine]	inactive: 0
O=c1c(-c2ccc(O)cc2)coc2cc(O)cc(O)c12 [Genistein]	inactive: 0
O=C1C=CC(=C(c2ccc(O)cc2)c2ccc(O)cc2)C=C1 [rosolic acid]	inactive: 0
CNC(=C[N+](=O)[O-])NCCSCc1ccc(CN(C)C)o1 [Ranitidine hydrochloride]	inactive: 0
COc1cc2c(cc1OC)-c1cc3ccc(OC)c(OC)c3c[n+]1CC2 [palmatine]	inactive: 0
COC(=O)[C@H]1[C@H]2C[C@@H]3c4[nH]c5cc(OC)ccc5c4CCN3C[C@H]2C[C@@H](OC(=O)c2cc(OC)c(OC)c(OC)c2)[C@@H]1OC [reserpine]	inactive: 0
CC[C@H](CC[C@@H](C)[C@H]1CC[C@H]2[C@@H]3CC=C4C[C@@H](OC(C)=O)CC[C@]4(C)[C@H]3CC[C@]12C)C(C)C [sitosteryl acetate]	inactive: 0
O=C(O[C@@H]1Cc2c(O)cc(O)cc2O[C@@H]1c1cc(O)c(O)c(O)c1)c1cc(O)c(O)c(O)c1 [epigallocatechin-3-monogallate]	inactive: 0
C[C@]12CC[C@@H](O)C[C@H]1CCc1ccccc12 [3alpha-hydroxy-4,4-bisnor-8,11,13-podocarpatriene]	inactive: 0
CNC[C@H](O)c1cccc(O)c1 [Phenylephrine hydrochloride]	inactive: 0
COC(=O)C[C@H]1C(C)(C)[C@@H](OC(C)=O)[C@@H]2CC3=C4CC(=O)O[C@@H](c5ccoc5)[C@]4(C)CC[C@@H]3[C@@]1(C)C2=O [fissinolide]	inactive: 0
CCN(CC)CCCC(C)Nc1c2ccc(Cl)cc2nc2ccc(OC)cc12 (configuration not stated) [Quinacrine dihydrochloride]	active: 1
O=C(O)P(=O)(O)O [foscarnet sodium]	inactive: 0
CC1(C)C2CC(=O)O[C@@]3(C)C4=CC(=O)O[C@@H](c5ccoc5)[C@]4(C)CCC3[C@@]2(C)C=C[C@H]1O (some centres not stated) [deoxyandirobin lactone]	inactive: 0
